Out of some 310,000 compounds screened, about 2,200 (0.71%) showed an effect of 50% or more. Effects have a minus sign here. The list shows a part of the results.
biological target: human ether-à-go-go-related gene (hERG) potassium channel (human, UniProt Q12809); assay: primary screen, population patch clamp on CHO cells stably expressing hERG
Sequence (Q12809 whole entry, looked up): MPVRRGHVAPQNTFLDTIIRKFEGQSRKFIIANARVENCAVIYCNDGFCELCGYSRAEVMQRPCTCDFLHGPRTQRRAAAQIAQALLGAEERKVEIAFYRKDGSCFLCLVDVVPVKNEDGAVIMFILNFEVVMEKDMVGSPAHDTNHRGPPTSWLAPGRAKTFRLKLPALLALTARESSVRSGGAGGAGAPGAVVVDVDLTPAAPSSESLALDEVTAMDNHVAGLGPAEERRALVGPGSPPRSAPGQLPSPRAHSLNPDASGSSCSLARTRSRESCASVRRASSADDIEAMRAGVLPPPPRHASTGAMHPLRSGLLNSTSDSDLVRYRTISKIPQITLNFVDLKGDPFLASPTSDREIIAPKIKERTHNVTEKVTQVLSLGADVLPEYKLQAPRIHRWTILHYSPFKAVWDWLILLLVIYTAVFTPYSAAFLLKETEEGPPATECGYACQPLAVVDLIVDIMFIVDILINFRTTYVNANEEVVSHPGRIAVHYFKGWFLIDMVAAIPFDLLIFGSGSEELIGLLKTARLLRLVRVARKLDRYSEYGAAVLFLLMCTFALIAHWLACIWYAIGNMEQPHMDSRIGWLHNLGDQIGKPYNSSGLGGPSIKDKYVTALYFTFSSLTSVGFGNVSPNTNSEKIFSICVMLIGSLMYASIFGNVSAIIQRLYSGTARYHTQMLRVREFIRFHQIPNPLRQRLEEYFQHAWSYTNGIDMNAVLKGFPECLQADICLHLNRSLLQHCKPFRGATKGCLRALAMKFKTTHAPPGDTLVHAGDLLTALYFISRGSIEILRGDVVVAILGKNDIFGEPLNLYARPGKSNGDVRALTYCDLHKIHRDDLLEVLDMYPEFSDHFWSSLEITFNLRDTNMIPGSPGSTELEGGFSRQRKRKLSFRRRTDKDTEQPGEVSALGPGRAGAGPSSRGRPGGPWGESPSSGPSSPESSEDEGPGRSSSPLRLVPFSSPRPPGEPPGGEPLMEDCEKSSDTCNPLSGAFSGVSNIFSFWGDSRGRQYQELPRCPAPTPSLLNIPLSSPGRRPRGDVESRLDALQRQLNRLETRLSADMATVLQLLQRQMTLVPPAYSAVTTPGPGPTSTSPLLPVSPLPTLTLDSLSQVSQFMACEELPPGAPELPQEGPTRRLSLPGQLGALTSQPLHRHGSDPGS

Question: With `Cc1ccccc1C1c2[nH]c3ccccc3c2CCN1CCCn1cccn1` (centres unmarked) as the molecule, how does the “hERG current change (%, negative = inhibition) at 1uM” value read?
Answer: Its value is 6.62%.

Question: For `CN(Cc1ccccn1)Cc1nc(-c2ccc(Cl)cc2)no1`, which “hERG current change (%, negative = inhibition) at 1uM” value is on record?
Answer: Its value is 2.33%.

Question: Which “hERG current change (%, negative = inhibition) at 1uM” value does the source give for `O=C(NCCCN1CCOCC1)c1c(O)c2cc(Br)cc(Br)c2[nH]c1=O` here?
Answer: The value was 0.873%.

Question: How did the “hERG current change (%, negative = inhibition) at 1uM” value turn out when `CCc1cccc(CC)c1NC(=O)c1ccccc1CCc1ccccc1` was run?
Answer: Its value is 10.6%.

Question: `CCCc1cc(=O)[nH]c(SC(CC)C(=O)Nc2ccccc2C#N)n1` (centres unmarked) was tested. Which “hERG current change (%, negative = inhibition) at 1uM” value did it give?
Answer: The value was 1.57%.

Question: Which “hERG current change (%, negative = inhibition) at 1uM” value does the source give for `CCCCS(=O)(=O)N1CCC(C(=O)NCC2CCCO2)CC1` (centres unmarked) here?
Answer: The value was 19.1%.

Question: How did the “hERG current change (%, negative = inhibition) at 1uM” value turn out when `CC(C)NC(=S)NC(c1ccccc1)(c1ccccc1)c1ccccc1` was run?
Answer: Its value is 15.7%.

Question: Which “hERG current change (%, negative = inhibition) at 1uM” value does the source give for `Cc1cccc(-n2ncc3c(N4CCC5(CC4)OCCO5)ncnc32)c1` here?
Answer: The value was 7.13%.

Question: With `CCC(=NCc1ccco1)c1c(O)n(Cc2ccccc2)c(=O)[nH]c1=O` as the molecule, how does the “hERG current change (%, negative = inhibition) at 1uM” value read?
Answer: Its value is 6.41%.

Question: How did the “hERG current change (%, negative = inhibition) at 1uM” value turn out when `COc1ccc(N2CCN(C(=O)c3ccc(CS(=O)(=O)c4ccc(OC)cc4)o3)CC2)cc1` was run?
Answer: Its value is -20%.

Question: Which “hERG current change (%, negative = inhibition) at 1uM” value does the source give for `CC(=O)N(/N=C1/C(=O)Nc2ccccc21)c1ccccc1` here?
Answer: The value was 16.7%.

Question: For `CCN1CCN(C(=O)c2cc(S(=O)(=O)Nc3ccc(S(C)(=O)=O)cc3)ccc2Cl)CC1`, which “hERG current change (%, negative = inhibition) at 1uM” value is on record?
Answer: The value was 15.7%.

Question: How did the “hERG current change (%, negative = inhibition) at 1uM” value turn out when `COc1cc(/C=C(\C#N)C(=O)Nc2cccc3ncccc23)cc(OC)c1OC.Cl` was run?
Answer: The value was 14.9%.

Question: With `O=C(CCN1C(=O)[C@@H]2Cc3ccccc3CN2C1=O)N[C@H](Cc1ccccc1)C(=O)O` as the molecule, how does the “hERG current change (%, negative = inhibition) at 1uM” value read?
Answer: Its value is 6.46%.

Question: With `Cc1ccc(N2C(=O)CC(NNC(=O)Cc3ccc(F)cc3)C2=O)cc1Cl` (centres unmarked) as the molecule, how does the “hERG current change (%, negative = inhibition) at 1uM” value read?
Answer: The value was 11.6%.

Question: With `Cc1ccccc1OCC(=O)OCC(=O)Nc1ccc(S(N)(=O)=O)cc1` as the molecule, how does the “hERG current change (%, negative = inhibition) at 1uM” value read?
Answer: The value was 7.14%.

Question: How did the “hERG current change (%, negative = inhibition) at 1uM” value turn out when `O=C(CSc1nnnn1-c1ccccc1)CSc1nnnn1-c1ccccc1` was run?
Answer: The value was 10.2%.

Question: `COc1cc(OC)cc(C(=O)N[C@H](C(=O)OCc2cc(=O)oc3cc(C)ccc23)C(C)C)c1` was tested. Which “hERG current change (%, negative = inhibition) at 1uM” value did it give?
Answer: Its value is 1.65%.

Question: `CCN1CCN(c2ccc(S(=O)(=O)N3CCOCC3)cc2NC(=O)C(C)Oc2ccc(F)cc2)CC1` (centres unmarked) was tested. Which “hERG current change (%, negative = inhibition) at 1uM” value did it give?
Answer: Its value is -11.2%.

Question: With `COC(=O)C1=C(C)N(CCc2ccc(OC)cc2)C(=O)C1` as the molecule, how does the “hERG current change (%, negative = inhibition) at 1uM” value read?
Answer: Its value is -8.24%.

Question: With `Cc1ccc(O)c(C2=NCCNC(C(F)(F)F)=C2)c1` as the molecule, how does the “hERG current change (%, negative = inhibition) at 1uM” value read?
Answer: The value was 5.32%.

Question: Which “hERG current change (%, negative = inhibition) at 1uM” value does the source give for `O=C(COC(=O)c1cncc(Br)c1)NCc1ccc(F)cc1` here?
Answer: Its value is 6.7%.

Question: How did the “hERG current change (%, negative = inhibition) at 1uM” value turn out when `CCOc1cc(/C=C2\SC(=NC)N(C)C2=O)c(Br)cc1OC(C)=O` was run?
Answer: Its value is 13.5%.

Question: How did the “hERG current change (%, negative = inhibition) at 1uM” value turn out when `Cc1ccc(S(=O)(=O)Nc2ccc(O)c(Sc3ncn[nH]3)c2)cc1` was run?
Answer: The value was 10.2%.

Question: `O=C(NCC(=O)N1CCN(S(=O)(=O)c2ccccc2F)CC1)c1ccc2ccccc2c1` was tested. Which “hERG current change (%, negative = inhibition) at 1uM” value did it give?
Answer: The value was 7.24%.

Question: For `CCCC1Nc2ccc(C(=O)O)cc2C2C=CCC12` (centres unmarked), which “hERG current change (%, negative = inhibition) at 1uM” value is on record?
Answer: Its value is 10.3%.

Question: How did the “hERG current change (%, negative = inhibition) at 1uM” value turn out when `CC(C)n1cc(CNC(=O)C2CCC(=O)N(Cc3ccccc3F)C2)cn1` (centres unmarked) was run?
Answer: The value was 16.8%.

Question: `CCC(=O)N1CCN(c2ccc(NC(=S)NC(=O)c3cccc([N+](=O)[O-])c3)cc2)CC1` was tested. Which “hERG current change (%, negative = inhibition) at 1uM” value did it give?
Answer: Its value is 3.45%.

Question: For `O=C(c1cc2n(n1)C(C(F)(F)F)CC(c1ccco1)N2)N1CCN(c2ccccn2)CC1` (centres unmarked), which “hERG current change (%, negative = inhibition) at 1uM” value is on record?
Answer: Its value is 5.81%.

Question: `CN(C)S(=O)(=O)c1cccc(NC(=O)CO/N=C(\N)c2ccccc2)c1` was tested. Which “hERG current change (%, negative = inhibition) at 1uM” value did it give?
Answer: Its value is 12.7%.

Question: How did the “hERG current change (%, negative = inhibition) at 1uM” value turn out when `O=C1CC(c2ccco2)CC(O)=C1C=Nc1cc(Cl)cc(Cl)c1` (centres unmarked) was run?
Answer: The value was -5.4%.

Question: For `COC(=O)c1ccccc1NC(=O)CN1CCOCC1`, which “hERG current change (%, negative = inhibition) at 1uM” value is on record?
Answer: The value was 5.34%.

Question: With `O=C(Cc1ccccc1)Nc1cccc(N2CCCC2)c1` as the molecule, how does the “hERG current change (%, negative = inhibition) at 1uM” value read?
Answer: Its value is -5.67%.

Question: `Cc1ccc2nc(-c3ccccc3)oc(=O)c2c1` was tested. Which “hERG current change (%, negative = inhibition) at 1uM” value did it give?
Answer: Its value is 12.8%.

Question: Which “hERG current change (%, negative = inhibition) at 1uM” value does the source give for `COc1cccc(N=c2oc3ccc(OC)cc3cc2-c2nc3ccccc3[nH]2)c1` here?
Answer: Its value is 17.9%.

Question: `CCC(C)c1ccc(NC(=S)NCCn2cc(Br)cn2)cc1` (centres unmarked) was tested. Which “hERG current change (%, negative = inhibition) at 1uM” value did it give?
Answer: The value was 9.71%.

Question: Which “hERG current change (%, negative = inhibition) at 1uM” value does the source give for `CCCCNC(=S)Nc1ccc(OC)nc1` here?
Answer: Its value is 7.83%.

Question: With `Clc1cccc(Cc2nn[nH]n2)c1` as the molecule, how does the “hERG current change (%, negative = inhibition) at 1uM” value read?
Answer: Its value is 17.5%.

Question: With `COc1ccc(CCC(=O)N2CCC3(CC2)OCCO3)cc1` as the molecule, how does the “hERG current change (%, negative = inhibition) at 1uM” value read?
Answer: The value was -5.44%.

Question: With `CC(C)(C)c1ccc(C(=O)Nc2sc3c(c2C(=O)O)CCC3)cc1` as the molecule, how does the “hERG current change (%, negative = inhibition) at 1uM” value read?
Answer: Its value is 11.5%.

Question: `CC(C)(CO)NS(=O)(=O)c1ccc2c(c1)oc(=O)c1cc(S(=O)(=O)NC(C)(C)CO)ccc12` was tested. Which “hERG current change (%, negative = inhibition) at 1uM” value did it give?
Answer: Its value is 3.06%.

Question: Which “hERG current change (%, negative = inhibition) at 1uM” value does the source give for `CCn1c(SCC#N)nc2c(c1=O)C1(CCCC1)Cc1ccccc1-2` here?
Answer: The value was -4.86%.

Question: `Clc1ccc(-c2cc(-c3ccccn3)on2)c(Cl)c1` was tested. Which “hERG current change (%, negative = inhibition) at 1uM” value did it give?
Answer: Its value is 10.5%.

Question: Which “hERG current change (%, negative = inhibition) at 1uM” value does the source give for `COc1ccccc1NC(=S)N=Nc1c(O)[nH]c2ccc(Br)cc12` here?
Answer: The value was 8.37%.

Question: For `Cc1cc2c(cc1C)-c1nnnn1C(C)(C)C2`, which “hERG current change (%, negative = inhibition) at 1uM” value is on record?
Answer: The value was 17.2%.

Question: For `C=CCNC(=O)CSc1nc2scc(-c3ccco3)c2c(=O)n1CC=C`, which “hERG current change (%, negative = inhibition) at 1uM” value is on record?
Answer: The value was -4.06%.

Question: Which “hERG current change (%, negative = inhibition) at 1uM” value does the source give for `Cc1ccc(CNC(=O)c2ccc(NC3=NC4CS(=O)(=O)CC4S3)cc2)cc1` (centres unmarked) here?
Answer: Its value is 2.79%.

Question: With `O=C(O)c1cc(Cl)c(Cl)cc1C(=O)Nc1cccnc1` as the molecule, how does the “hERG current change (%, negative = inhibition) at 1uM” value read?
Answer: Its value is 12.6%.

Question: With `O=C(O)CCc1ccc(-c2cccs2)n1-c1ccc(C(=O)O)cc1` as the molecule, how does the “hERG current change (%, negative = inhibition) at 1uM” value read?
Answer: The value was 12.4%.

Question: `Cc1cc(C)cc(-n2ncc3c2CCCC3NC(=O)c2cc(C)n(C)n2)c1` (centres unmarked) was tested. Which “hERG current change (%, negative = inhibition) at 1uM” value did it give?
Answer: The value was 11.2%.

Question: How did the “hERG current change (%, negative = inhibition) at 1uM” value turn out when `O=C(O)c1cccc(Cn2c(Cl)c(/C=N/NC(=O)c3cccc(O)c3)sc2=O)c1` was run?
Answer: The value was 16.3%.

Question: `CC1CCN(CCCNC(=O)C2CC(=O)N(CCc3ccccc3)C2)CC1` (centres unmarked) was tested. Which “hERG current change (%, negative = inhibition) at 1uM” value did it give?
Answer: The value was 6.56%.

Question: Which “hERG current change (%, negative = inhibition) at 1uM” value does the source give for `Cc1ccc(N(CC(O)CN2C(=O)NC(C)(C)C2=O)S(=O)(=O)c2ccc([N+](=O)[O-])cc2)cc1` (centres unmarked) here?
Answer: Its value is -2.02%.

Question: `Cc1c(Cl)cccc1NC(=S)NCc1cccs1` was tested. Which “hERG current change (%, negative = inhibition) at 1uM” value did it give?
Answer: Its value is 9.12%.

Question: Which “hERG current change (%, negative = inhibition) at 1uM” value does the source give for `Cc1ccc(CNC(=O)C2CCN(S(=O)(=O)c3ccc4nc5c(c(C(=O)O)c4c3)CC(C)CC5)CC2)cc1` (centres unmarked) here?
Answer: The value was -17.8%.

Question: Which “hERG current change (%, negative = inhibition) at 1uM” value does the source give for `O=C(O)c1nc(-c2ccccc2)n(-c2ccc(Cl)cc2)n1` here?
Answer: The value was 11.2%.

From paper PMC4336329 (PLoS ONE, 2015)
